Assay results as given in PubChem BioAssay AID2546 (National Center for Advancing Translational Sciences (NCATS), 2010).
Hit rate of the full screen: of about 310,000 compounds, about 11,000 (3.5%) were called active. This list was built around the results that the source calls inconclusive (neither active nor inactive); the mix of calls is not that of the screen. The call rests on the fitted dose curve; in most records, active means well fitted inhibition curve with a large enough effect; inconclusive means small, poorly fitted or top-dose-only effect, or effect the other way; inactive means flat fitted curve, though single readings scatter. No potency is given beside an inconclusive call; the fits are too rough.

Test: VP16 counterscreen qHTS for inhibitors of ROR gamma transcriptional activity;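 further: Gal4-VP16 expression switched on by copper sulfate through the metallothionein promoter; nearly all actives have a fitted effect of over 50% in size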
Settings: Drosophila S2 Gal4-VP16 UAS-luciferase, luminescence, 20 h; series mostly up to 53.6 µM
Potency means the concentration at half of the fitted maximal effect; tags describe the fitted curve by direction and shape.

SMILES | Potency
O=C(CCl)N=c1sccn1Cc1ccc(Cl)cc1Cl | inconclusive [inhibitor, single point]
Nc1c(-c2ccc(Cl)cc2)nnn1-c1ccccc1 | inconclusive [inhibitor, single point]
S=C1NC[C@H](Cc2cccc3ccccc23)N1CC1CCCCC1 | active: 5.01 µM
COc1ccc(CNC(=O)C(c2ccncc2)N(C(=O)Cc2cccs2)c2ccc(C)cc2)cc1 (stereo not drawn) | inconclusive [activator, partial curve]
O=C(Nc1ccc(O)cc1)c1c(O)c2c([nH]c1=O)CCCC2 | inconclusive [inhibitor, single point]
CC(=O)N[C@@H](CCCNC(=N)N)C(=O)N[C@H](CC1CCCCC1)C(=O)N[C@@H]1CCC2SC[C@@H](C(=O)N[C@H](CCCNC(=N)N)C(=O)N[C@H](Cc3ccc(Cl)cc3)C(N)=O)N2C1=O (stereo partly drawn) | inactive
CCSc1ccc(-c2ccco2)nn1 | inconclusive [activator, single point]
Cc1cccc(C)c1OCCNC(=O)CCC(=O)c1ccccc1 | inconclusive [activator, single point]
O=C(N/N=C/c1ccccc1O)c1ccc2c(c1)OCO2 | active: 1.78 µM
Cc1ccc(NC(=O)c2cccs2)cc1S(=O)(=O)Nc1cccc(Cl)c1 | inconclusive [inhibitor, single point]
CC1CCN(c2ncnc3ccccc23)CC1 | inconclusive [inhibitor, single point]
CC(=O)Oc1ccc(Nc2ccccc2)cc1 | inactive
Cc1ccc(C)c(NS(=O)(=O)c2ccc3c(c2)Cc2cc(S(=O)(=O)Nc4cc(C)ccc4C)ccc2-3)c1 | inconclusive [inhibitor, single point]
CC(C)Oc1ccc(OCCCN2CCCCCC2)cc1 | inactive
COc1ccc(C(OCC(O)CN(C)C2CCCCC2)c2ccc(OC)cc2)cc1 (stereo not drawn) | inactive
Cc1ccc2nc(SCC(=O)Nc3cc(C(F)(F)F)ccc3N3CCOCC3)[nH]c2c1 | inactive
FC(F)(F)c1cc(NC(=S)NC(c2ccccc2)c2ccccc2)cc(C(F)(F)F)c1 | inconclusive [inhibitor, single point]
Cc1ccc(NC(=O)CSc2ncnc3ccccc23)cc1S(=O)(=O)N1CCCCCC1 | inconclusive [inhibitor, single point]
Cc1ccc(NNC(=O)c2cc(C(C)(C)C)nn2Cc2ccccc2)cc1 | active: 17.8 µM
CC(=O)Nc1cccc(OCc2cnc(Cl)s2)c1 | inactive
c1ccc(-c2nnc(-c3c[nH]c4ccccc34)nc2-c2ccccc2)cc1 | inactive
Cc1cccc(C)c1-n1c(C)cc(/C=N/NC(=O)c2ccncc2)c1C | active: 2.24 µM
O=C(CNc1cccc2ccccc12)N/N=C/c1ccc([N+](=O)[O-])o1 | inconclusive [inhibitor, single point]
Cc1n[nH]c(C)c1N1C(=O)c2cccc3c(N4CCCCCC4)ccc(c23)C1=O | inconclusive [inhibitor, single point]

SMILES | Potency
c1ccc(Nc2scc(-c3ccccc3)[n+]2Cc2ccco2)cc1 | inconclusive [activator, single point]
CCOC(=O)NC(=S)c1ccc[nH]1 | inconclusive [inhibitor, single point]
COc1cccc(/C=N/NC(=O)COc2cccc3cccnc23)c1O | active: 12.6 µM
COc1cccc(CN2CCN(Cc3nc4c(s3)CCCC4)CC2CCO)c1 (stereo not drawn) | inconclusive [inhibitor, single point]
Cc1ccc(C(=O)/C=C2/NC(=O)CS2)cc1 | inconclusive [inhibitor, single point]
O=C(Nc1nnc(C2=COCCO2)o1)c1ccc(F)cc1 | active: 0.794 µM
O=C(Nc1ccc(Br)cc1)c1cc2ccccn2n1 | inactive
CC(C)c1ccc(N=c2c([N+](=O)[O-])nn(-c3ccc4c(c3)OCCO4)n2O)cc1 | inconclusive [inhibitor, single point]
O=C(CCc1nnc(Cc2ccc3c(c2)OCO3)o1)NC(c1ccccn1)C(F)(F)F (stereo not drawn) | inactive
Cc1c(C(=O)NCCSCc2cccc(C(F)(F)F)c2)cnn1-c1ccc(Cl)cc1 | inactive
O=C(CSc1ccc(Cl)cc1)c1ccco1 | inconclusive [activator, single point]
Cc1nc(-c2ccccc2)nc2[nH]c(C(C)C)cc(=O)c12 | inactive
CCN1CCCC(CO)(Cc2ccccc2)C1 (stereo not drawn) | inactive
CCOc1cc(/C=N/Nc2ncnc(Cl)c2N)ccc1O | inconclusive [inhibitor, single point]
c1ccc2nc(-c3nc4ccccc4o3)ccc2c1 | active: 10 µM
CC(C)(C)c1ccc(CN2C3=NCCCN3c3ccccc32)cc1 | inconclusive [inhibitor, single point]
COc1ccc(-c2cn[nH]c2-c2ccc(OCc3ccc(F)cc3)cc2O)cc1OC | active: 3.55 µM
COc1cc(S(=O)(=O)N2CCN=C2c2ccccc2)ccc1F | inactive
Cc1nc([N+](=O)[O-])c(Br)n1CC(=O)c1ccc(Cl)cc1 | inconclusive [inhibitor, single point]
CC(C)(C)c1ccc(NC(=S)NCCc2ccccn2)cc1 | inconclusive [inhibitor, single point]
CC1=NOC(=O)/C1=C\c1ccc(-c2ccc(Cl)cc2Cl)o1 | inconclusive [inhibitor, single point]
CC(CC(O)C1OC1(C)C)C1CCC2(C)C3=CCC4C(C)(C)C(=O)CCC4(C)C3CC[C@@]12C (stereo partly drawn) | inconclusive [inhibitor, single point]
CCOC(=O)Nc1cccc(NC(=O)c2cc(OC)cc(OC)c2)c1 | inactive
COc1ccc(NC(=O)Nc2cc(C(=O)O)ccc2N2CC3CC(C2)c2cccc(=O)n2C3)c(OC)c1 (stereo not drawn) | inconclusive [inhibitor, partial curve]
